Measurements reported in patent US20150218285A1 (TORAY INDUSTRIES, published 2015).

Target: T1, CAPRIN-1 protein on the cell surface of human cancer cells (human, UniProt Q14444 2-709)
T1 sequence (looked up): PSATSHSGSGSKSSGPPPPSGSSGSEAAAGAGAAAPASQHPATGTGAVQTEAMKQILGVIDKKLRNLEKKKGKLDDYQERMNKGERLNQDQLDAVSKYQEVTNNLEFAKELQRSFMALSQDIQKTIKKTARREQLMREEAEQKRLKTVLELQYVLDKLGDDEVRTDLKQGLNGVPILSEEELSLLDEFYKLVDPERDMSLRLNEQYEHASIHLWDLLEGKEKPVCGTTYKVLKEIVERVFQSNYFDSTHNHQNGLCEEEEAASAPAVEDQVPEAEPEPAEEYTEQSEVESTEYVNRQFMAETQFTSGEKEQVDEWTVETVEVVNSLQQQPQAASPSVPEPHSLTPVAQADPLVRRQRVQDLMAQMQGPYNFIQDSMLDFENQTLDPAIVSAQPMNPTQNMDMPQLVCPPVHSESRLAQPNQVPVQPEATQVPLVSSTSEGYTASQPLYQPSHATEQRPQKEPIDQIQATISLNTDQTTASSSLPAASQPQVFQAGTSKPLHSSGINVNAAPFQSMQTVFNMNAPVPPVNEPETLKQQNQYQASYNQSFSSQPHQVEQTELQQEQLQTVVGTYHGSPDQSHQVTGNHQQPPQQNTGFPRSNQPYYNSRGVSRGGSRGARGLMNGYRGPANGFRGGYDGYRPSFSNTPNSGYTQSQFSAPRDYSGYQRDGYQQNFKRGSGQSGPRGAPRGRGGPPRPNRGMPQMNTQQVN
Experiment: cell-based or functional assay

B1: human-mouse chimeric anti-CAPRIN-1 antibody #33 (antibody, human IgG1, kappa)
heavy: GPGLVKPSQSLSLTCSVTGYSITSGYYWNWIRQFPGNKLEWMGYISYDGSNNYNPSLKNRISITRDTSKNQFFLKLNSVTTEDTATYYCATGMAWFAYWAKDSVTPP[no letters for human IgG1 constant region]
light: SPSSLAVSVGEKVTMS[no letters for about 80 residues][no letters for about 120 residues]
  cytotoxicity (ADCC, 51Cr release, human NK cells) on Hep3B, HepG2, SK-Hep-1, SW480: ≥ 20%
